Results on 20 molecules are retold here after patent publication US20250333528A1 (DENALI THERAPEUTICS, published 2025).

Experiment in all cases: SPR (Biacore 8K), VHH-Fc captured, TfR apical domain as analyte
Background: Surface plasmon resonance follows binding to a sensor surface in real time, without labels.

The target of experiment [1] is T1, human transferrin receptor apical domain (human, UniProt P02786 198-378, limits assumed).
T1 construct: domain: apical domain; Soluble analyte in SPR; also called huTfR-AD; human TfR apical domain
Here is the method: (§1) A set of experiments was performed to assess the binding affinities of VHH-Fc fusions for human and cyno TfR apical domain. In these experiments, binding affinities were determined by surface plasmon resonance using a Biacore™ 8K instrument in 1×HBS-EP+running buffer (GE Healthcare Cat. No. BR100669). Biacore™ Series S CM5 sensor chips were treated with a Human antibody capture kit (GE Healthcare, Cat. No. BR100839). VHH-Fc fusions were captured on each flow cell and serial 3-fold dilutions of human and cyno TfR apical domain (300, 100, 33, 11, 3.7, and 0 nM) were injected at a flow rate of 30 μL/min using the multi cycle kinetics method. Each sample was analyzed with a 270-second association and a 10-minute dissociation. Some VHH-Fc fusions were measured with serial 3-fold dilutions of human and cyno TfR apical domain (100, 33, 11, and 0 nM) with a 300-second association and 10-minute dissociation. After each cycle, the chip was regenerated using 3 M magnesium chloride for 30 seconds at 50 μL/minute. Binding response was corrected by subtracting the RU from a reference flow cell. A 1:1 Langmuir model of simultaneous fitting of kₒₙ and koff was used for kinetics analysis using Biacore™ 8K Evaluation Software.
(§2) The variable domains containing the mutation were sub-cloned onto the corresponding constant heavy domains of human IgG1. The heavy chain plasmids were transfected in Expi293 cells. Supernatants were collected after five days and monoclonal antibodies were purified by protein A chromatography. In order to assess affinities of the B07 mutants for human and cyno TfR apical domain, binding affinities were determined by surface plasmon resonance using a Biacore™ 8K instrument as described herein.

Experiment [2] deals with T2, cynomolgus transferrin receptor apical domain (cynomolgus, UniProt A0A2K5X958 198-378).
T2 construct: domain: apical domain; Soluble analyte in SPR; also called cyTfR-AD; cyno TfR apical domain
Here is the method:
as §1, §2

For experiment [3], the target named is T1, human transferrin receptor apical domain. Here is the method:
as §1
The source holds these as a separate data set.

Experiment [4] concerns the target T2, cynomolgus transferrin receptor apical …. Here is the method: as §1
The source holds these as a separate data set.

Where two headings read alike, the source gives them in different places.

T1 sequence (P02786 198-378 limits assumed): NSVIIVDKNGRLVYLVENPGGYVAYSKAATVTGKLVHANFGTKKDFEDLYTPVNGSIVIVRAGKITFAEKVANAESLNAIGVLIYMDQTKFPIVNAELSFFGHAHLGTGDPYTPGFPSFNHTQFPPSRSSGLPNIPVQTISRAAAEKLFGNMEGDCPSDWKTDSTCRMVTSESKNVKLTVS
T2 sequence (A0A2K5X958 entry or part of it): as the sequence (P02786 198-378 limits assumed) above, with R11G, Y50D, T51S, N95K, E97D, R128Q, R167K, S173N, N175S counted along it

B1: B07v14 (Fc fusion)
chain: QVQLVESGGGLVQTGGSLRLSCTASGLTSDTGGMGWFRQAAGKERDFVSAITWSGRHTYYADSVKGRFNISRDKGKNTVFLQMNSLKPEDTAVYYCALDVVGIGIEVQTYDYWGQGTQVTVSSGGGGAS[sequence of human IgG1 Fc with changes omitted]
notes: B07 L58Y (Kabat) on human IgG1 Fc; also called B07 L58Y
The Kd is the concentration at which binding is half-saturated. A low value points to a tighter complex. With B1, the results for the dissociation constant Kd in experiment [1] and in experiment [2] were 8.2 nM and 9.5 nM, respectively.

B2: B07v19 (Fc fusion)
chain: QVQLVESGGGLVQTGGSLRLSCTASGLTSDTGGMGWFRQAAGKERDFVSAITWSGRHTLYADSVKGRFNISRDKGKNTVFLQMNSLKPEDTAVYYCALDVVAIGIEVQTYDYWGQGTQVTVSSGGGGAS[sequence of human IgG1 Fc with changes omitted]
notes: B07 G98A (Kabat) on human IgG1 Fc; also called B07 G98A
As to B2, the figures for the Kd in experiment [1] and in experiment [2] were 330 nM and 160 nM, respectively.

B3: B07v15 (Fc fusion)
chain: QVQLVESGGGLVQTGGSLRLSCTASGLTSDTGGMGWFRQAAGKERDFVSAITWSGRHTLYADSVKGRFNISRDKGKNTVFLQMNSLKPEDTAVYYCARDVVGIGIEVQTYDYWGQGTQVTVSSGGGGAS[sequence of human IgG1 Fc with changes omitted]
notes: B07 L94R (Kabat) on human IgG1 Fc; also called B07 L94R
On to B3, for which the Kd in experiment [1] came out at 3.1 nM; in experiment [2] it was 10 nM.

B4: B07v7 (Fc fusion)
chain: QVQLVESGGGLVQTGGSLRLSCTASGLTSDTGGMSWFRQAAGKERDFVSAITWSGRHTLYADSVKGRFNISRDKGKNTVFLQMNSLKPEDTAVYYCALDVVGIGIEVQTYDYWGQGTQVTVSSGGGGAS[sequence of human IgG1 Fc with changes omitted]
notes: B07 G35S (Kabat) on human IgG1 Fc; also called B07 G35S
B4: the Kd in experiment [1] came to 1.2 nM; in experiment [2] it was 3.2 nM.

B5: B07v16 (Fc fusion, name in Kabat numbering)
chain: QVQLVESGGGLVQTGGSLRLSCTASGLTSDTGGMGWFRQAAGKERDFVSAITWSGRHTLYADSVKGRFNISRDKGKNTVFLQMNSLKPEDTAVYYCALAVVGIGIEVQTYDYWGQGTQVTVSSGGGGAS[sequence of human IgG1 Fc with changes omitted]
notes: 95 is a Kabat number, not a count on the entry (first D of CDR3 ALDVVG...); also called DC2676; B07 D95A
Consider B5, for which the binding result in experiment [1] and in experiment [2] was “no binding” in each case.

B6: B07v3 (Fc fusion)
chain: QVQLVESGGGLVQTGGSLRLSCTASGLTSSTGGMGWFRQAAGKERDFVSAITWSGRHTLYADSVKGRFNISRDKGKNTVFLQMNSLKPEDTAVYYCALDVVGIGIEVQTYDYWGQGTQVTVSSGGGGAS[sequence of human IgG1 Fc with changes omitted]
notes: B07 D30S (Kabat) on human IgG1 Fc; also called B07 D30S
Take B6: the Kd was 0.7 nM in experiment [1] and 1.9 nM in experiment [2].

B7: B07v26 (Fc fusion)
chain: QVQLVESGGGLVQTGGSLRLSCTASGLTSDTGGMGWFRQAAGKERDFVSAITWSGRHTLYADSVKGRFNISRDKGKNTVFLQMNSLKPEDTAVYYCALDVVGIGIEVQAYDYWGQGTQVTVSSGGGGAS[sequence of human IgG1 Fc with changes omitted]
notes: B07 T100eA (Kabat) on human IgG1 Fc; also called B07 T100eA
For the molecule B7, the Kd in experiment [1] is 2.4 nM; in experiment [2], 6.6 nM.

B8: B07v18 (Fc fusion)
chain: QVQLVESGGGLVQTGGSLRLSCTASGLTSDTGGMGWFRQAAGKERDFVSAITWSGRHTLYADSVKGRFNISRDKGKNTVFLQMNSLKPEDTAVYYCALDVAGIGIEVQTYDYWGQGTQVTVSSGGGGAS[sequence of human IgG1 Fc with changes omitted]
notes: B07 V97A (Kabat) on human IgG1 Fc; also called B07 V97A
On to B8, for which the values for the Kd in experiment [1] and in experiment [2] were 5.5 nM and 18 nM, respectively.

B9: B07v5 (Fc fusion)
chain: QVQLVESGGGLVQTGGSLRLSCTASGLTSDTYGMGWFRQAAGKERDFVSAITWSGRHTLYADSVKGRFNISRDKGKNTVFLQMNSLKPEDTAVYYCALDVVGIGIEVQTYDYWGQGTQVTVSSGGGGAS[sequence of human IgG1 Fc with changes omitted]
notes: B07 G32Y (Kabat) on human IgG1 Fc; also called B07 G32Y
Consider B9, for which the values for the dissociation constant (Kd) in experiment [1] and in experiment [2] were 4.7 nM and 17 nM, respectively.

B10: B07v13 (Fc fusion)
chain: QVQLVESGGGLVQTGGSLRLSCTASGLTSDTGGMGWFRQAAGKERDFVSAITWSGGHTLYADSVKGRFNISRDKGKNTVFLQMNSLKPEDTAVYYCALDVVGIGIEVQTYDYWGQGTQVTVSSGGGGAS[sequence of human IgG1 Fc with changes omitted]
notes: B07 R55G (Kabat) on human IgG1 Fc; also called B07 R55G
In the case of B10, the Kd in experiment [1] turned out to be 8.1 nM; in experiment [2], 22 nM.

B11: B07v21 (Fc fusion)
chain: QVQLVESGGGLVQTGGSLRLSCTASGLTSDTGGMGWFRQAAGKERDFVSAITWSGRHTLYADSVKGRFNISRDKGKNTVFLQMNSLKPEDTAVYYCALDVVGIAIEVQTYDYWGQGTQVTVSSGGGGAS[sequence of human IgG1 Fc with changes omitted]
notes: B07 G100A (Kabat) on human IgG1 Fc; also called B07 G100A
As for B11, the Kd came to 220 nM in experiment [1] and 370 nM in experiment [2].

B12: B07v30 (Fc fusion)
chain: QVQLVESGGGLVQTGGSLRLSCTASGLTSDTGGMGWFRQAAGKERDFVSAITFSGRHTLYADSVKGRFNISRDKGKNTVFLQMNSLKPEDTAVYYCALDVVGIGIEVQTYDYWGQGTQVTVSSGGGGAS[sequence of human IgG1 Fc with changes omitted]
notes: B07 W52aF (Kabat) on human IgG1 Fc; also called B07 W52aF
For B12, the results for the Kd in experiment [1] and in experiment [2] were 1.2 nM and 1 nM, respectively.

B13: B07v20 (Fc fusion)
chain: QVQLVESGGGLVQTGGSLRLSCTASGLTSDTGGMGWFRQAAGKERDFVSAITWSGRHTLYADSVKGRFNISRDKGKNTVFLQMNSLKPEDTAVYYCALDVVGAGIEVQTYDYWGQGTQVTVSSGGGGAS[sequence of human IgG1 Fc with changes omitted]
notes: B07 I99A (Kabat) on human IgG1 Fc; also called B07 I99A
For B13, the Kd was 20 nM in experiment [1] and 55 nM in experiment [2].

B14: hB07v15 (Fc fusion)
chain: EVQLVESGGGLVQPGGSLRLSCAASGLTSDTGGMGWFRQAPGKELEWVSAITWSGRHTLYADSVKGRFTISRDKSKNTVYLQMNSLRAEDTAVYYCALDVVGIGIEVQTYDYWGQGTLVTVSSGGGGAS[sequence of human IgG1 Fc with changes omitted]
notes: Humanized B07 VHH (hu VH3; 37F, 44E, 73K, 78V) fused to human IgG1 Fc
Take B14: the Kd was found to be 0.8 nM in experiment [3] and 1.9 nM in experiment [4].

B15: hB07v3 (Fc fusion)
chain: EVQLVESGGGLVQPGGSLRLSCAASGLTSDTGGMGWFRQAPGKELEWVSAITWSGRHTLYADSVKGRFTISRDNSKNTLYLQMNSLRAEDTAVYYCALDVVGIGIEVQTYDYWGQGTLVTVSSGGGGAS[sequence of human IgG1 Fc with changes omitted]
notes: Humanized B07 VHH (hu VH3; 37F, 44E) fused to human IgG1 Fc
For the molecule B15, the Kd in experiment [3] was found to be 4 nM; in experiment [4] it was 9.5 nM.

B16: hB07v2 (Fc fusion)
chain: EVQLVESGGGLVQPGGSLRLSCAASGLTSDTGGMGWFRQAPGKGLEWVSAITWSGRHTLYADSVKGRFTISRDNSKNTLYLQMNSLRAEDTAVYYCALDVVGIGIEVQTYDYWGQGTLVTVSSGGGGAS[sequence of human IgG1 Fc with changes omitted]
notes: Humanized B07 VHH (hu VH3; 37F) fused to human IgG1 Fc
For the molecule B16, the equilibrium dissociation constant (Kd) in experiment [3] was 4 nM; in experiment [4], 9 nM.

B17: hB07v9 (Fc fusion)
chain: EVQLVESGGGLVQPGGSLRLSCAASGLTSDTGGMGWFRQAPGKGLEWVSAITWSGRHTLYADSVKGRFTISRDKSKNTVYLQMNSLRAEDTAVYYCALDVVGIGIEVQTYDYWGQGTLVTVSSGGGGAS[sequence of human IgG1 Fc with changes omitted]
notes: Humanized B07 VHH (hu VH3; 37F, 73K, 78V) fused to human IgG1 Fc
As to B17, the Kd is 1.3 nM in experiment [3] and 1.5 nM in experiment [4].

B18: hB07v16 (Fc fusion)
chain: EVQLVESGGGLVQPGGSLRLSCAASGLTSDTGGMGWFRQAPGKGREWVSAITWSGRHTLYADSVKGRFTISRDKSKNTVYLQMNSLRAEDTAVYYCALDVVGIGIEVQTYDYWGQGTLVTVSSGGGGAS[sequence of human IgG1 Fc with changes omitted]
notes: Humanized B07 VHH (hu VH3; 37F, 45R, 73K, 78V) fused to human IgG1 Fc
As to B18, the dissociation constant (Kd) was 1.1 nM in experiment [3] and 3.3 nM in experiment [4].

B19: hB07v5 (Fc fusion)
chain: EVQLVESGGGLVQPGGSLRLSCAASGLTSDTGGMGWFRQAPGKEREWVSAITWSGRHTLYADSVKGRFTISRDNSKNTLYLQMNSLRAEDTAVYYCALDVVGIGIEVQTYDYWGQGTLVTVSSGGGGAS[sequence of human IgG1 Fc with changes omitted]
notes: Humanized B07 VHH (hu VH3; 37F, 44E, 45R) fused to human IgG1 Fc
Consider B19, for which the figures for the Kd in experiment [3] and in experiment [4] were 6.7 nM and 13.8 nM, respectively.

B20: hB07v4 (Fc fusion)
chain: EVQLVESGGGLVQPGGSLRLSCAASGLTSDTGGMGWFRQAPGKGREWVSAITWSGRHTLYADSVKGRFTISRDNSKNTLYLQMNSLRAEDTAVYYCALDVVGIGIEVQTYDYWGQGTLVTVSSGGGGAS[sequence of human IgG1 Fc with changes omitted]
notes: Humanized B07 VHH (hu VH3; 37F, 45R) fused to human IgG1 Fc
Regarding B20, the dissociation constant Kd stood at 7 nM in experiment [3] and 13.4 nM in experiment [4].
